Results as given in the supplement of paper PMC4723716.
Over roughly 3,600 compounds, “viability index relative to DMSO control” has its median near 0.81; the lowest 2% begin near 0.13. This is one part of the list.
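Also: 384-well serum-free SaLSSA: MitoTracker Red CMXRos staining with saponin lysis, high-content imaging, treated-well particle count divided by plate-mean count of DMSO wells.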

The molecules below were run on Plasmodium falciparum NF54 stage V gametocytes (assay: viability index relative to DMSO control (fraction); higher = less gametocyte killing). Details: 1.25 µM, incubation time: 72 h.
CN(C)c1ccc(C=Cc2nc(=O)c3ccccc3o2)cc1 was tested, and the viability index was 0.71. Cc1ccc(-c2nc3cc(NC(=O)c4ccc(Cl)cc4Cl)ccc3o2)cc1 was tested, and the viability index was 1.32. With C[n+]1c(C=Cc2ccc(Cl)c(Cl)c2)ccc2ccccc21 the viability index was 0.41. In the case of Cc1ncc(CCCCN(C)C)c2c1[nH]c1ccccc12, the viability index was 1.29. In the case of CCN(CC)CCCNC(=S)N(Cc1ccccc1)Cc1cc2cc(C)c(Cl)cc2[nH]c1=O, the viability index was 0.921. O=C(OCCOc1ccc([N+](=O)[O-])cc1)c1ccc(Br)o1 showed a viability index of 0.851. Work on CCCCOc1ccc(NC2=NC3(CCCC3)NC(N)=N2)cc1 yielded a viability index of 1.2. Work on Cc1ccc(NC2=C(c3ccc(C(F)(F)F)cc3)C(=O)c3ccccc32)cc1F yielded a viability index of 1.06. Work on CCN(CC)CCCN(Cc1cc2cc3c(cc2[nH]c1=O)OCCO3)C(=S)Nc1cccc(Cl)c1 yielded a viability index of 0.842. With Cc1ccc(C)c(Nc2nc(NCc3ccccc3)c3ccccc3n2)c1 the viability index was 0.762. CCCCNC(=O)CSCc1cnn(-c2ccccc2)c1-n1cccc1 gave a viability index of 0.916. Work on Clc1ccc(Nc2nc3nonc3nc2Nc2ccc(Cl)c(Cl)c2)cc1Cl yielded a viability index of 0.338. CCCCCCCn1c2c(c(=N)c3c1CCC3)CCCC2 gave a viability index of 0.387. COc1ccc(CC(=O)Nc2ccc(S(=O)(=O)N3CCCCCC3)cc2)cc1 was tested, and the viability index was 1.01. Molecule CC(C)(C[N+](C)(C)C)C1OC2CCCCC2C2C=CCCC21 (centres undefined) has a viability index of 0.973. O=C(O)C1Cc2c([nH]c3ccccc23)C(c2ccc(Cl)cc2Cl)N1 (centres undefined) showed a viability index of 1.09. c1ccc(CCc2nc3cccnc3n2C2CCN(C3CCN(Cc4ccccc4)CC3)CC2)cc1 was tested, and the viability index was 0.769. For COC(=O)C1=CNC=C(C(=O)OC)C1c1cc(OC)c(OC)cc1OC, the viability index was 0.992. Cc1ccc(CN2CCN(Cc3cn(C(C)C)c4ccccc34)CC2CCO)o1 (centres undefined) showed a viability index of 0.788. With CCN1CCN(c2nc3ccccn3c(=O)c2C=C2SC(=S)N(C(C)C)C2=O)CC1 the viability index was 0.649. CC(=O)N(C1=C(N2CCCC2)C(=O)c2ccccc2C1=O)c1ccc(I)cc1 was tested, and the viability index was 0.879. In the case of NC(=O)Oc1ccc(Cc2ccccc2)cc1, the viability index was 1.08. COc1ccc([N+](=O)[O-])cc1NC(=O)C(C)Nc1ccc(N(C)C)cc1 (centres undefined) showed a viability index of 1.13. COc1ccccc1C1SCCN1C(=O)Nc1ccc(Cl)c(Cl)c1 (centres undefined) was tested, and the viability index was 0.909. COc1ccc2c(c1)[nH]c1c(N3CCN(C(c4ccccc4)c4ccccc4)CC3)ncnc12 was tested, and the viability index was 0.767. Cn1nc(C(F)(F)F)c(-c2ccc(F)cc2)c1NC(=O)Nc1ccc(F)cc1 showed a viability index of 0.456. Work on Cc1ccc2c(C)nc(Nc3nc(C)cc(-c4ccccc4)n3)nc2c1 yielded a viability index of 0.31. Work on CCN(CC)c1ccc2c(c1)OC(N)=C(C#N)C2c1ccsc1 (centres undefined) yielded a viability index of 1.2. CC(Cc1ccsc1)Nc1nc2nonc2nc1N(C)C (centres undefined) was tested, and the viability index was 0.853. CCN(CC)S(=O)(=O)c1cc(S(=O)(=O)c2ccc(Cl)c(S(=O)(=O)N(CC)CC)c2)ccc1Cl gave a viability index of 1.07. Work on CC[n+]1c(C=C2Sc3cc(NC(C)=O)ccc3N2C)ccc2ccccc21 yielded a viability index of 0.857. In the case of Oc1ccc(-c2ccccc2)cc1CN1CCC(c2ccccc2)CC1, the viability index was 0.529. With Oc1nc(-c2ccccn2)nc(C(F)(F)F)c1Br the viability index was 0.62. CC(C)C(=O)N1CCOc2c(cc(-c3csc4ccccc34)cc2OCCc2ccccn2)C1 was tested, and the viability index was 0.529. CCCn1nc(NS(C)(=O)=O)c2cc3cccc(C)c3nc21 showed a viability index of 0.795. For O=C(c1ccc([N+](=O)[O-])cc1)c1ccc(Cl)c(Cl)c1, the viability index was 0.574. Work on COCCNC(=O)[C@@H]1C[C@@H](Sc2nc3ccccc3[nH]2)CN1Cc1ccc2ccccc2c1 yielded a viability index of 1.12. Work on COC(=O)C(C)NC(=O)c1ccc(F)cc1 (centres undefined) yielded a viability index of 0.867. With CN(C)c1ccc(NC=CC(=O)C(C)(C)C)cc1 the viability index was 0.861. Molecule CCC(C)(C)c1ccc(OCC(O)CNCc2ccccc2)c(C(C)(C)CC)c1 (centres undefined) has a viability index of 0.392. COc1ccc(O)c(C=NNc2nc3ccccc3[nH]2)c1 gave a viability index of 0.356. COc1ccc(-c2noc(-c3cccc(I)c3)n2)cc1OC gave a viability index of 0.962. Molecule Cc1cc(Nc2cccc(Cl)c2)nc(NCc2ccccc2)n1 has a viability index of 0.525. In the case of CCN1CCC(NC2CCCc3c2[nH]c2ccc([N+](=O)[O-])cc32)CC1 (centres undefined), the viability index was 1.07. For COc1cc2nc(NCc3cccnc3)n3nc(-c4ccccc4)nc3c2cc1OC, the viability index was 0.667. In the case of Cc1oc2c(cc(NS(=O)(=O)c3ccc(F)cc3)c3ccccc32)c1C(=O)OCc1ccccc1, the viability index was 0.838. CCCN(CCC)S(=O)(=O)c1cc(Br)cc2c1N(C(=O)CC)CC2 was tested, and the viability index was 0.73. COc1cc(OC)cc(C(=O)NCc2n[nH]c(=S)n2-c2cccc(C(F)(F)F)c2)c1 showed a viability index of 0.317. In the case of Cc1ccc(N(C(=O)c2snc(C(=O)NC3CCCCC3)c2N)C(C(=O)NCCc2ccccc2)c2ccc(O)cc2)c(C)c1 (centres undefined), the viability index was 0.821. Molecule O=C(Nc1ccc(-c2nc3cc(NC(=O)c4cccc([N+](=O)[O-])c4)ccc3[nH]2)cc1)c1cccc([N+](=O)[O-])c1 has a viability index of 1.03. O=C(NNC(=S)NCc1ccco1)C(F)(F)F gave a viability index of 1.22. O=C1CSC(=Nc2ccc(F)c(Cl)c2)N1c1ccc(F)c(Cl)c1 showed a viability index of 0.682. Molecule c1ccc2[nH]c(Sc3ncnc4sc5c(c34)CCC5)nc2c1 has a viability index of 0.853. CCN(CC)S(=O)(=O)c1ccc(C(=O)NCc2nnc(SCC(=O)N3CCc4ccccc43)n2-c2ccccc2OC)cc1 showed a viability index of 0.661. With COc1ccc(-c2ccc(C=NNC(=O)CNC(=O)c3ccc4c(c3)OCO4)o2)cc1Cl the viability index was 0.815. With COC(=O)C1=CNC=C(C(=O)OC)C1c1cc(Br)ccc1OC the viability index was 0.647. Work on c1ccc(-c2ccnc3c2ccc2c(-c4ccccc4)ccnc23)cc1 yielded a viability index of 0.779. CCCC(c1nnnn1C1CCCCC1)N1CCN(C(=O)c2ccco2)CC1 (centres undefined) was tested, and the viability index was 1.13. For Cc1cc(Cl)ccc1OC(C)C(=O)N1CCc2ccccc21 (centres undefined), the viability index was 0.84.
